# In PubChem BioAssay AID588855 (National Center for Advancing Translational Sciences (NCATS), 2011):
# The whole screen tested about 410,000 compounds, of which about 5,000 (1.2%) were called active. The shares of active, inactive and inconclusive entries below differ from those in the screen. Calls follow the shape of the dose curve; as a rule, active = well fitted inhibition curve with a large enough effect; inconclusive = small, poorly fitted or top-dose-only effect; inactive = no such curve, though single readings can be large or run the other way. Potencies beside an inconclusive call are fits to weak or partial responses and may not hold up.
# Assay: qHTS for Inhibitors of TGF-b; also: nearly all actives have a fitted effect of over 65% in size
# Details: HepG2 CAGA-GFP TGF-b/SMAD3 reporter, GFP fluorescence, 18 h, TGF-beta stimulated, 500 pg/mL final; series mostly up to 46.1 µM; activity, negative = inhibition: at the top concentration
# Outline: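 TGF-beta reporter screen: HEPG2 CAGA-GFP, 1% FBS, 500 pg/mL TGF-beta final, 18 h; per-cell GFP summed per well; curves fitted and categorized by class.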
# % is scaled to controls: 0 for no effect and ±100 for the full control effect; potency is read from the fitted curve at half-maximal effect; tags tell the direction and shape of the fitted curve.
SMILES,Potency,"activity, negative = inhibition"
O=[N+]([O-])c1ccc(N2CCN(CC3CCCCC3)CC2)cc1,"inconclusive: 20 µM [inhibitor, single point]",
COc1ccccc1C=C1CCc2ccccc2C1=O,"inconclusive: 35.5 µM [inhibitor, single point]",
c1ccc(CCc2nn3c(Cn4cnc5ccccc54)nnc3s2)cc1,,inactive: -7.29%
CCN(CC(=O)Nc1cc(S(=O)(=O)N2CCOCC2)ccc1Cl)Cc1ccccc1,"inconclusive: 35.5 µM [inhibitor, single point]",
CCOC(=O)c1c(C)[nH]c(C)c1S(=O)(=O)N1CCCC(C(=O)Nc2ccc(C)cn2)C1 (configuration not stated),"inconclusive: 0.282 µM [inhibitor, partial curve, poor fit]",
CC(C)C(c1nnnn1C1CCCC1)N(C)C1CCCCC1 (configuration not stated),,inactive: 4.1%
COc1ccccc1Cn1cc(C(=O)c2ccc(C)cc2)c(=O)c2cc(C)ccc21,,inactive: -1.42%
CN(C)CCCNC(=S)N1CCN(c2nc(-c3ccccc3)cs2)CC1,"inconclusive: 35.5 µM [inhibitor, single point]",
Cc1ccc(-n2nc(CO)c(C(=O)NCCCc3ccccc3)n2)cc1C,"inconclusive: 5.62 µM [inhibitor, single point]",
Cc1ccc(C2=NN(C(=O)c3ccccc3F)C(c3ccccc3F)C2)cc1 (configuration not stated),,inactive: -12.2%
COC(=O)c1ccc(C(=O)OC)c(NC(=O)CSCc2ccccc2Br)c1,,inactive: 21.8%
Cc1ccc(C)c(S(=O)(=O)c2nnn3c2nc(NC(C)C)c2sccc23)c1,"inconclusive: 35.5 µM [inhibitor, single point]",
O=C(CCCOC(=O)c1ccc(O)cc1O)c1ccc(Br)cc1,"inconclusive: 20 µM [inhibitor, single point]",
CCOC(=O)N1CCC(NC(=O)C2CCN(S(=O)(=O)c3ccc4c(c3)oc(=O)n4C)CC2)CC1,,inactive: -18.4%
Cc1c(C(=O)N(Cc2ccc(N(C)C)cc2)CC2CCCO2)oc2ccc(Cl)cc12 (configuration not stated),"inconclusive: 22.4 µM [inhibitor, partial curve, poor fit]",
CCCNC(=O)CSc1nnc(NC(=O)C2CC(=O)N(c3ccccc3OC)C2)s1 (configuration not stated),,inactive: 6.54%
COc1ccc(S(=O)(=O)Nc2ccccc2C(=O)NCc2ccco2)cc1Br,"inconclusive: 4.47 µM [inhibitor, full curve]",
CC(C)COc1ccc(C(=O)OCC(=O)NCc2cccs2)cc1,"inconclusive: 35.5 µM [inhibitor, single point]",
CC(C)CCn1c(Sc2nc3ccccc3o2)nc2c1c(=O)[nH]c(=O)n2C,"inconclusive: 7.08 µM [inhibitor, partial curve, poor fit]",
Cc1ccc(-c2nn(CC(=O)Nc3cccnc3)c(=O)c3ccccc23)cc1,"inconclusive: 15.8 µM [inhibitor, single point]",
CCCc1cc(C(=O)N2CCCC(C(=O)c3cccc4ccccc34)C2)n(C)n1 (configuration not stated),"inconclusive: 35.5 µM [inhibitor, single point]",

SMILES,Potency,"activity, negative = inhibition"
COc1ccc(S(=O)(=O)NCCC(=O)NC2CCCCCCC2)cc1,"inconclusive: 35.5 µM [inhibitor, single point]",
COc1ccccc1C(CNC(=O)c1cccc(S(=O)(=O)NCc2ccccc2)c1)N(C)C (configuration not stated),"inconclusive: 0.501 µM [inhibitor, full curve, poor fit]",
CC(Oc1ccc(Cl)cc1Cl)C(=O)OCC(=O)c1c(N)n(C)c(=O)n(C)c1=O (configuration not stated),"inconclusive: 0.112 µM [inhibitor, full curve, poor fit]",
COc1ccccc1C(CNc1nc(C(F)(F)F)nc2ccccc12)N(C)C (configuration not stated),,inactive: 13.3%
CCOC(=O)c1c(C(=O)OCC)c(C)n(N2C(=O)CSC2=S)c1C,"inconclusive: 22.4 µM [inhibitor, partial curve, poor fit]",
C/C(=N\Nc1nccnc1Cl)c1ccc(O)c(C)c1,"inconclusive: 10 µM [inhibitor, single point]",
Cc1ccc(S(=O)(=O)N(Cc2nc(-c3cccc(C)c3)no2)C2CCCCC2)cc1,"inconclusive: 11.2 µM [inhibitor, single point]",
CNS(=O)(=O)c1cn(CC(=O)N2CCN(c3cccc(C)c3C)CC2)cc1S(=O)(=O)NC,,inactive: -1.51%
O=C(Oc1ccc(-c2nnco2)cc1)C1CCN(C(=O)c2ccc(F)cc2)CC1,"inconclusive: 12.6 µM [inhibitor, partial curve, poor fit]",
O=C(Nc1nnc(-c2cccs2)o1)c1ccc(S(=O)(=O)N2CCOCC2)cc1,,inactive: -14.2%
CCOC(=O)N1CCC(NC(=O)CS(=O)Cc2nc(-c3ccc(Cl)cc3)oc2C)CC1 (configuration not stated),"inconclusive: 8.91 µM [inhibitor, partial curve, poor fit]",
COc1ccc(/C=N/Nc2ncc(C(F)(F)F)cc2Cl)cc1OC,"inconclusive: 20 µM [inhibitor, single point]",
CCN(CC)S(=O)(=O)c1cccc(C(=O)Nc2ccc(C#N)cc2)c1,"inconclusive: 17.8 µM [inhibitor, single point]",
Cc1ccc2nc(Cl)c3nnnn3c2c1,"inconclusive: 10 µM [inhibitor, partial curve, poor fit]",
COC(=O)c1c(SC)nc2ccccc2c1OCc1ccc(Cl)cc1,"inconclusive: 2.51 µM [inhibitor, full curve, poor fit]",
CCOC(=O)C1=C[C@@H](C2CCCC2)N(S(=O)(=O)c2ccc([N+](=O)[O-])cc2)[C@H]1c1ccccc1,"inconclusive: 1.12 µM [inhibitor, full curve, poor fit]",
Cc1cc(NCCCn2ccnc2)n2nc(C)c(-c3ccc(Cl)cc3)c2n1,,inactive: -3.62%
COc1ccc(/C=C2\N=C3CCCCCN3C2=O)cc1,"inconclusive: 17.8 µM [inhibitor, single point]",
CC(C)CN(CCCNC(=O)CN1N=C(c2ccc(Cl)cc2)CCC1=O)CC(C)C,"inconclusive: 35.5 µM [inhibitor, single point]",
Cc1ccc(-n2c(=O)[nH]c3c(C(N)=O)nc(CC(C)C)nc32)cc1,,inactive: -17.7%
CCN1CCN(C(=O)C2CCCN(S(=O)(=O)c3cccc4nsnc34)C2)CC1 (configuration not stated),"inconclusive: 35.5 µM [inhibitor, single point]",
